According to paper PMC6634424:
No constants are given. Whether binding was seen depends on the method and setting. Some binding calls cover weakened binding; strength is not graded here.

T1: ZAR1^wt (Arabidopsis thaliana) (UniProt Q38834)
T1 sequence: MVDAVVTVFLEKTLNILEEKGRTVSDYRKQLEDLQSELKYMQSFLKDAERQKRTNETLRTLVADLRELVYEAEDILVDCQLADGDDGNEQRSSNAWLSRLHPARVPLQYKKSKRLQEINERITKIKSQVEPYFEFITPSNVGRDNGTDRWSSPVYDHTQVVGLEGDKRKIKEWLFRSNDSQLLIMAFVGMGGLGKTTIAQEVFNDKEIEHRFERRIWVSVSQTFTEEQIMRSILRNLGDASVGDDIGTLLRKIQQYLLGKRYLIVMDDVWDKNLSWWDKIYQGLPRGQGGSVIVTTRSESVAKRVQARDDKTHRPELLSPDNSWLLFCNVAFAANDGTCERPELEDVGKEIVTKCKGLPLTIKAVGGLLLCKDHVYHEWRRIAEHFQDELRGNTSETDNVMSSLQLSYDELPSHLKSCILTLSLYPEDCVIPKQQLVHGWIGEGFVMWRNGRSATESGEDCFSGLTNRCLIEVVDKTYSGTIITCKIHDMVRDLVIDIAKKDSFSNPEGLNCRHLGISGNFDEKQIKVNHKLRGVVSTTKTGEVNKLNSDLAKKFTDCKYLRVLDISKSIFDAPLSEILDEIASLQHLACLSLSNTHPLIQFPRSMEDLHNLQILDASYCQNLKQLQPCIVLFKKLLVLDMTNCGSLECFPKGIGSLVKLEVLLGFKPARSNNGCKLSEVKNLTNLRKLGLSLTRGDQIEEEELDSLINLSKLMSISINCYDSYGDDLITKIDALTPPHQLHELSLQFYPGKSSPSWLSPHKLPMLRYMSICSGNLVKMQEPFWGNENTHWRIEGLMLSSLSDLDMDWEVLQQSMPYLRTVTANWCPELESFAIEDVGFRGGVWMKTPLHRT


Experiments:
[1] = target: T1, ZAR1^wt (Arabidopsis thaliana); test: two-hybrid; Y4H: LexA-ZAR1 (full length or truncation) bait, 11 PBL preys, integrated ZED1^wt and integrated HopZ1a^wt
[2] = target: T1, ZAR1^wt (Arabidopsis thaliana); test: two-hybrid; Y3H: LexA-ZAR1 (full length or truncation) bait, 11 PBL preys, integrated ZED1^‘DT’ (N173D V212T), no HopZ1a

binding [1] | binding [2] | Binder
binds |  | ZED1^wt, chromosomally integrated (protein, UniProt Q8LGB6 1-334) MSKNNKKKRRWDLKNGGILLEELIASFDGKTNPIRCFSSDQILKATDNFSESRIISSWGYFIWYKGVIEERQVSIKKWSSQNLSSFTEAYRDISVSSQMSGHKNALKLIGCCLEFDLPALVCEYTEHGPLNRDGGLSSGVVLPWKVRLKIAKEIASSVTYLHTAFPETIVHRNINPTNIFIDENWTAKLSDFWFCVAIPEGELYVEDDVKGVIGFVDPDYYWTMKVTEKVDIYSFGVVMLVLLSGRAAVFNGPDEAPMSLNDHVSEVMEKGEFDEIVDKEIWNDLGGDDDLVLRRSQVKAFLRLALRCVRYKKEDPVSGMLEVAKELKLIEKLS
 | binds | ZED1^‘DT’, chromosomally integrated (protein, UniProt Q8LGB6 1-334) MSKNNKKKRRWDLKNGGILLEELIASFDGKTNPIRCFSSDQILKATDNFSESRIISSWGYFIWYKGVIEERQVSIKKWSSQNLSSFTEAYRDISVSSQMSGHKNALKLIGCCLEFDLPALVCEYTEHGPLNRDGGLSSGVVLPWKVRLKIAKEIASSVTYLHTAFPETIVHRDINPTNIFIDENWTAKLSDFWFCVAIPEGELYVEDDVKGTIGFVDPDYYWTMKVTEKVDIYSFGVVMLVLLSGRAAVFNGPDEAPMSLNDHVSEVMEKGEFDEIVDKEIWNDLGGDDDLVLRRSQVKAFLRLALRCVRYKKEDPVSGMLEVAKELKLIEKLS
